The experiment relates to BDF1 mice, M5076 sarcoma ip, median survival T/C. Kind of experiment: NCI In Vivo Anticancer Drug Screen. Data for tumor model Sarcoma M5076 (intraperitoneal) in B6D2F1 (BDF1) mice. Conditions: endpoint: median survival time; dose: 24.0 mg/kg/injection; schedule: Q04DX004 (ip); vehicle: Klucel (hydroxypropylcellulose) (HPC); higher = longer survival. On the procedure: The antitumor activity of compounds was measured in mice bearing transplantable tumors. Survival or tumor size were measured and the results are expressed as the measurement made in the treated group (T) divided by the measurement made in the vehicle treated control group (C). The tumor model used in this assay is Sarcoma M5076 (intraperitoneal) in B6D2F1 (BDF1) mice

Toxic doses and inconclusive results are not listed. Certain results were filed several times, with different values. Only these are listed. There may be further records. Values given together are repeated measurements (runs, samples, wells, individuals or studies).

For the compound `CC1CCC(NC(=O)N(CCCl)N=O)CC1` (stereo unspecified), the T/C was 105 % of control, 216 % of control, 320 % of control.

For the origin of these results see PubChem BioAssay AID286 (DTP/NCI, 2004).
